# Reference: the supplement of paper PMC8728848
# This is one part of the list.
# Legend:
# Assay in all cases: glycan array binding signal (z-score within array); higher = stronger binding
# Conditions in all cases: glycan notation: IUPAC condensed, linker removed
# [1] = target: Neu5Ac(a2-8)Neu5Ac
# In short: (§1)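 The binding signal is a Z-score computed within each array. Data were drawn from 3228 arrays in the Consortium for Functional Glycomics database, restricted to those with a known protein sequence. Scores were averaged over arrays of the same protein sequence at different concentrations or buffers, and over linkers, and negative values can be taken as non-binding.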
# [2] = target: Neu5Ac(a2-8)Neu5Ac(a2-3)Gal(b1-3)GalNAc(b1-4)[Neu5Ac(a2-3)]Gal(b1-4)Glc
# In short: as §1
# [3] = target: Neu5Ac(a2-8)Neu5Ac(a2-3)Gal(b1-3)GalNAc(b1-4)[Neu5Ac(a2-8)Neu5Ac(a2-3)]Gal(b1-4)Glc
# In short: as §1
# [4] = target: Neu5Ac(a2-8)Neu5Ac(a2-3)Gal(b1-4)Glc
# In short: as §1
# [5] = target: Neu5Ac(a2-8)Neu5Ac(a2-3)Gal(b1-4)GlcNAc
# In short: as §1
# [6] = target: Neu5Ac(a2-8)Neu5Ac(a2-3)[Gal(b1-3)GalNAc(b1-4)]Gal(b1-4)Glc
# In short: as §1
# [7] = target: Neu5Ac(a2-8)Neu5Ac(a2-3)[GalNAc(b1-4)]Gal(b1-4)Glc
# In short: as §1
# [8] = target: Neu5Ac(a2-8)Neu5Ac(a2-8)Neu5Ac
# In short: as §1
# [9] = target: Neu5Ac(a2-8)Neu5Ac(a2-8)Neu5Ac(a2-3)Gal(b1-4)Glc
# In short: as §1
# [10] = target: Neu5Ac(a2-8)Neu5Ac(a2-8)Neu5Ac(a2-3)[Gal(b1-3)GalNAc(b1-4)]Gal(b1-4)Glc
# In short: as §1
# [11] = target: Neu5Ac(a2-8)Neu5Ac(a2-8)Neu5Ac(a2-3)[GalNAc(b1-4)]Gal(b1-4)Glc
# In short: as §1
# [12] = target: Neu5Ac(a2-8)Neu5Ac(a2-8)Neu5Ac(a2-8)Neu5Ac(a2-3)[GalNAc(b1-4)]Gal(b1-4)Glc
# In short: as §1
# [13] = target: Neu5Ac(a2-8)Neu5Gc(a2-3)Gal(b1-4)GlcNAc
# In short: as §1
# [14] = target: Neu5Ac(b2-6)Gal(b1-4)GlcNAc
# In short: as §1
# [15] = target: Neu5Ac(b2-6)GalNAc
# In short: as §1
# [16] = target: Neu5Ac9Ac(a2-3)Gal(b1-3)GlcNAc
# In short: as §1
# [17] = target: Neu5Ac9Ac(a2-3)Gal(b1-4)GlcNAc
# In short: as §1
# [18] = target: Neu5Ac9Ac(a2-6)Gal(b1-4)GlcNAc
# In short: as §1
# [19] = target: Neu5Gc(a2-3)Gal(b1-3)GlcNAc
# In short: as §1
# [20] = target: Neu5Gc(a2-3)Gal(b1-3)[Fuc(a1-4)]GlcNAc
# In short: as §1
# [21] = target: Neu5Gc(a2-3)Gal(b1-4)Glc
# In short: as §1
# [22] = target: Neu5Gc(a2-3)Gal(b1-4)GlcNAc
# In short: as §1
# [23] = target: Neu5Gc(a2-3)Gal(b1-4)GlcNAc(b1-3)Gal(b1-4)GlcNAc(b1-2)Man(a1-3)[Neu5Gc(a2-3)Gal(b1-4)GlcNAc(b1-3)Gal(b1-4)GlcNAc(b1-2)Man(a1-6)]Man(b1-4)GlcNAc(b1-4)GlcNAc
# In short: as §1
# [24] = target: Neu5Gc(a2-3)Gal(b1-4)[Fuc(a1-3)]GlcNAc
# In short: as §1
# [25] = target: Neu5Gc(a2-6)Gal(b1-4)GlcNAc
# In short: as §1
# [26] = target: Neu5Gc(a2-6)GalNAc
# In short: as §1
# [27] = target: Neu5Gc(a2-8)Neu5Ac(a2-3)Gal(b1-4)GlcNAc
# In short: as §1
# [28] = target: Neu5Gc(a2-8)Neu5Gc(a2-3)Gal(b1-4)GlcNAc
# In short: as §1
# [29] = target: Neu5Gc(a2-8)Neu5Gc(a2-3)Gal(b1-4)GlcNAc(b1-3)Gal(b1-4)GlcNAc
# In short: as §1
# [30] = target: Neu5Gc(a2-8)Neu5Gc(a2-6)Gal(b1-4)GlcNAc
# In short: as §1
# [31] = target: Neu5Gc(b2-6)Gal(b1-4)GlcNAc
# In short: as §1
binder,measurement,setting,value
"AFL5 (Aspergillus fumigatus), Q4WB00 (protein) MDNFMEMTKKLGHQPELLRLRALDATYDDALEGKLVVAPLDMSEPGKKILDSGTADGTWLRNVRSKQSVPHDYYGSDVEGELFPKDPDGITYFAHSFKDPWPQQYLGFFDLVHIRGSLAGSAPEGPAPVIQNLTTLLKPGGWVQLMEMNAFSPPPNGPAMTDFAKMASEMFTGIGVGDFANNNKSMLEDAGLKNVQEKRVIVNLGKKAKPELHDQSIHGVTGPIVPLTSVARTVKSSFTGEQLDALPARVKEELETEGGQVEMIIAFGQKA",glycan array binding signal (z-score),[1],-0.198
same,glycan array binding signal (z-score),[2],0.375
same,glycan array binding signal (z-score),[3],-0.001
same,glycan array binding signal (z-score),[4],-0.133
same,glycan array binding signal (z-score),[5],-0.652
same,glycan array binding signal (z-score),[6],-0.078
same,glycan array binding signal (z-score),[7],-0.062
same,glycan array binding signal (z-score),[8],0.079
same,glycan array binding signal (z-score),[9],-0.171
same,glycan array binding signal (z-score),[10],0.067
same,glycan array binding signal (z-score),[11],-0.379
same,glycan array binding signal (z-score),[12],0.203
same,glycan array binding signal (z-score),[13],-0.841
same,glycan array binding signal (z-score),[14],-0.4
same,glycan array binding signal (z-score),[15],-0.406
same,glycan array binding signal (z-score),[16],-0.419
same,glycan array binding signal (z-score),[17],0.295
same,glycan array binding signal (z-score),[18],-0.065
same,glycan array binding signal (z-score),[19],-0.526
same,glycan array binding signal (z-score),[20],-0.222
same,glycan array binding signal (z-score),[21],-0.576
same,glycan array binding signal (z-score),[22],-0.191
same,glycan array binding signal (z-score),[23],0.635
same,glycan array binding signal (z-score),[24],-0.105
same,glycan array binding signal (z-score),[25],0.452
same,glycan array binding signal (z-score),[26],-0.233
same,glycan array binding signal (z-score),[27],-0.877
same,glycan array binding signal (z-score),[28],-0.488
same,glycan array binding signal (z-score),[29],-0.34
same,glycan array binding signal (z-score),[30],-0.413
same,glycan array binding signal (z-score),[31],0.035
